Results reported in PubChem BioAssay AID588795 (National Center for Advancing Translational Sciences (NCATS), 2011).
Out of some 390,000 compounds screened, about 1,400 (0.36%) were called active. The shares of active, inactive and inconclusive entries below differ from those in the screen. The call rests on the fitted dose curve; in most records, active means well fitted inhibition curve with a large enough effect; inconclusive means small, poorly fitted or top-dose-only effect; inactive means no such curve, though single readings can be large or run the other way. A potency beside an inconclusive call is a rough fit, not a confirmed value.

What follows are compounds tested against Flap endonuclease 1 (Homo sapiens) (UniProt P39748) (assay: qHTS Assay for the Inhibitors of Human Flap endonuclease 1 (FEN1).). Conditions: Recombinant FEN1 flap cleavage, fluorescence, 15 min; series mostly up to 114 µM.
Chain of UniProt P39748 (P39748 whole entry, looked up): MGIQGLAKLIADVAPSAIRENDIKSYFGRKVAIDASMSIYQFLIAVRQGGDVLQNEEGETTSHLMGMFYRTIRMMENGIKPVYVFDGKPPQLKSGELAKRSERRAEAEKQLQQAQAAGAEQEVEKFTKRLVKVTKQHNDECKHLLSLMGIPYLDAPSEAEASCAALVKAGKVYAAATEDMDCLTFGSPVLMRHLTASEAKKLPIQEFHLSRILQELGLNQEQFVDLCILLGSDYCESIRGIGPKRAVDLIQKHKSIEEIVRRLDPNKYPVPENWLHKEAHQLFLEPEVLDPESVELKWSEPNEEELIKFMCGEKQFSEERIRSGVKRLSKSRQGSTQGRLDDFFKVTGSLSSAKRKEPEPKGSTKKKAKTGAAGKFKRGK
Outline: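 Reaction started by adding substrate (50 nM final) to 10 nM enzyme after 15 min room-temperature compound preincubation. Reads at 0 and 15 min, with data normalized and fitted to a four-parameter Hill equation.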
Further: nearly all actives have a fitted effect of over 65% in size.
Potency means the concentration at half of the fitted maximal effect; tags describe the fitted curve by direction and shape.

| Structure (SMILES) | Potency |
| --- | --- |
| COc1cccc(C=NCCNC(=O)c2nonc2N)c1O | inconclusive: 89.1 µM [inhibitor, partial curve, poor fit] |
| Cc1ccc(OCC(=O)Nc2cc(NC(=O)COc3ccc(C)cc3)cc(C(=O)O)c2)cc1 | inactive |
| Cc1ccc(S(=O)(=O)N(C)C)cc1NC(=O)COC(=O)C1(c2ccccc2)CC1 | inconclusive: 89.1 µM [inhibitor, single point] |
| COc1ccc2c(c1)CCc1c(C(=O)N(C)c3ccccc3)noc1-2 | inactive |
| COc1cc(NC(=O)c2cccs2)c(OC)cc1NC(=O)CCC(=O)Nc1ccc2ncccc2c1 | inconclusive: 50.1 µM [inhibitor, partial curve, poor fit] |
| COc1c(N2CCN(C(=S)NCc3ccccc3)C(C)C2)c(F)cc2c(=O)c(C(=O)O)cn(C3CC3)c12 (stereo not drawn) | inconclusive: 50.1 µM [inhibitor, partial curve] |
| CCSc1ccc([C@@H]2[C@H]3C(=O)N(CC)C(=O)[C@H]3[C@]3(C(=O)OC)CCCCN23)cc1 | inconclusive: 39.8 µM [inhibitor, partial curve, poor fit] |
| Cc1ccc(S(=O)(=O)Nc2nc(C)cc(N/N=C/c3ccc(O)cc3)n2)cc1 | inconclusive: 22.4 µM [inhibitor, single point] |
| Cc1ccc(OCC(=O)Nc2ccc(F)cc2)c([N+](=O)[O-])n1 | inconclusive: 89.1 µM [inhibitor, partial curve, poor fit] |
| CCN(CC)CCn1nc2c3c(cccc3c1=O)-c1ccccc1-2 | inconclusive: 15.8 µM [inhibitor, full curve, poor fit] |
| CC1(C)CC(=O)c2cc(C(=O)NCCc3ccccc3)c(=O)[nH]c2C1 | inconclusive: 89.1 µM [inhibitor, single point] |
| COc1cccc(NC(=O)Nc2ccc3nsnc3c2)c1 | inconclusive: 50.1 µM [inhibitor, partial curve, poor fit] |
| CC1CCCN(C(=O)c2cc(-c3ccco3)nc3ccccc23)C1 (stereo not drawn) | inactive |
| CCOc1cccc(CNc2ccc(O)cc2)c1OCc1ccccc1Cl | inconclusive: 28.2 µM [inhibitor, single point] |
| N#C/C(=C\c1ccc(-c2ccc(F)cc2F)o1)c1nc2ccccc2[nH]1 | inconclusive: 79.4 µM [inhibitor, partial curve, poor fit] |
| O=C(O)C1CCCC1 | inconclusive: 44.7 µM [inhibitor, partial curve] |
| COc1ccc(NC(=O)c2cc(C3CC3)nc3c2cnn3C(C)C)cc1OC | inconclusive: 25.1 µM [inhibitor, partial curve, poor fit] |
| S=c1nc2ccccc2c2nc(-c3cccnc3)[nH]n12 | inconclusive: 89.1 µM [inhibitor, partial curve, poor fit] |
| Cc1ccc(O)c(C(=O)c2cc(C#N)c(=O)n(-c3c(C)n(C)n(-c4ccccc4)c3=O)c2)c1 | inactive |

| Structure (SMILES) | Potency |
| --- | --- |
| CCOC(=O)c1ccc(NC(=O)c2c(NCc3sccc3C)sc3c2CCCCC3)cc1 | inconclusive: 79.4 µM [inhibitor, partial curve, poor fit] |
| Cc1ccc(NS(=O)(=O)c2cc([N+](=O)[O-])ccc2NNC(=S)Nc2cccc(Cl)c2)c(C)c1 | inconclusive: 79.4 µM [inhibitor, partial curve] |
| COc1cc2c(cc1OC)CN(C(=O)CCC(=O)c1ccc(F)cc1)CC2 | inconclusive: 70.8 µM [inhibitor, partial curve, poor fit] |
| O=S(=O)(c1cc(Cl)cc(Cl)c1)N1CCC2CC1c1cc(Cl)ccc12 (stereo not drawn) | inconclusive: 89.1 µM [inhibitor, partial curve, poor fit] |
| O=C1c2cccc3c(O)ccc(c23)C(=O)N1Cc1ccccc1 | inconclusive: 22.4 µM [inhibitor, partial curve, poor fit] |
| CCCCOc1ccc(C2OC34CCCCC3C(C#N)(C#N)C2(C#N)C(=N)O4)cc1 (stereo not drawn) | inconclusive: 56.2 µM [inhibitor, partial curve, poor fit] |
| CCN(CC)S(=O)(=O)c1ccc2c(c1)N(CC(=O)N(C)Cc1ccccc1)C(=O)CO2 | inactive |
| COC(=O)c1sccc1NC(=O)Nc1cc(OC)ccc1OC | inconclusive: 89.1 µM [inhibitor, partial curve, poor fit] |
| CC1CCN(CC(=O)Nc2nc(-c3ccccc3)cs2)CC1 | inconclusive: 89.1 µM [inhibitor, partial curve, poor fit] |
| Cc1ccc(C(=O)c2cc([N+](=O)[O-])ccc2N2CCCCC2)c(C)c1 | inactive |
| CCc1nc(Nc2ccncc2)c2oc3ccccc3c2n1 | inconclusive: 25.1 µM [inhibitor, partial curve] |
| CCCCCCSc1ccc([C@H]2N[C@@](CC(C)C)(C(=O)OC)[C@H]3C(=O)N(C)C(=O)[C@@H]23)cc1 | inconclusive: 79.4 µM [inhibitor, partial curve, poor fit] |
| COc1cc(C#Cc2ccc3cc(CCCO)oc(=O)c3c2)cc(OC)c1 | inconclusive: 39.8 µM [inhibitor, partial curve, poor fit] |
| C#CCOCCOCCOCCNc1nc(N2CCN(C(=O)CCCCCCCCCCNC(=O)[C@H](CCCCN)n3cc(C[C@@H](C)CC)nn3)CC2)nc(N2CCN(C(=O)CCCCCCCCCCNC(=O)[C@H](CCCN=C(N)N)n3cc(C[C@@H](C)CC)nn3)CC2)n1 | active: 25.1 µM |
| Cc1cccc(-c2nnc3sc(-c4ccccc4C)nn23)c1 | inconclusive: 56.2 µM [inhibitor, partial curve, poor fit] |
| Cc1cccc(N(C)C(=O)CN(C)S(=O)(=O)c2ccc3[nH]c4c(c3c2)CCCC4)c1 | inactive |
| CC/C(=C/c1sc2ccc(C)cc2[n+]1CCCS(=O)(=O)[O-])SC | inactive |
| CC(=O)c1cccc(NC(=O)CSc2ccc(-c3ccccn3)nn2)c1 | inconclusive: 100 µM [inhibitor, partial curve, poor fit] |
| N#C/C(=C\c1cc(O)c(O)c(O)c1)C(N)=O | inconclusive: 10 µM [inhibitor, full curve, poor fit] |
